Structures are written as SMILES. Several values for one entry are separate records, joined by “and”; a condition that tells them apart may be missing. Equal entries are not always repeated. Out of some 340,000 compounds screened, about 6,900 (2%) were called active. Rule as the data show it: active = inhibition above about 30%; inactive = below that, where a call was filed. The entries are a selection whose mix differs from that of the whole data set. Entries without a call were filed so in the source.

The target in the test is D(2) dopamine receptor (Homo sapiens) (UniProt P14416). Briefly: HTS Assay for Allosteric Antagonists of the Human D2 Dopamine Receptor: Primary Screen for Antagonists. Also: 0% is about no effect. The settings on record: HEK293 TREx D2 cells, calcium flux, dopamine EC80; at 10 µM; stronger effect = higher value. Summed up: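 Overnight-induced (tetracycline, 30 C) HEK293 T-REx cells carrying force-coupled D2 receive a no-wash calcium dye, then compound, then EC80 dopamine at 180 s; signals are read kinetically throughout.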
Chain of UniProt P14416 (P14416 whole entry, looked up): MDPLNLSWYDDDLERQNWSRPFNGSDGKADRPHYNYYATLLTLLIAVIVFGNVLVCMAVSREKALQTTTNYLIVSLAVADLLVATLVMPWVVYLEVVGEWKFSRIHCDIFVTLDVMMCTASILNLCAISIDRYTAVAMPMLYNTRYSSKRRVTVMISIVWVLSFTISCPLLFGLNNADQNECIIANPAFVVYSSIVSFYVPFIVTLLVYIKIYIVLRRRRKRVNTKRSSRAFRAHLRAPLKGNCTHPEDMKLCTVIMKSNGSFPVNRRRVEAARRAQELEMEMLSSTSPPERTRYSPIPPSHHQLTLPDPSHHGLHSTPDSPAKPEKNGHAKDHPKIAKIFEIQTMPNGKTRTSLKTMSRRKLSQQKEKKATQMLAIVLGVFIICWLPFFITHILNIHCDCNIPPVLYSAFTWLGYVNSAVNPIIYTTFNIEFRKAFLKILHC
A general note: Calcium assays in cells follow changes in intracellular calcium, usually with a dye or a luminescent sensor.
In the case of `COc1ccc(OC)c(CNC(=O)CCn2c(=O)c3cccn3c3ccc(F)cc32)c1`, the inhibition was found to be 16.1%. Under `CCc1ccc(-c2nn(CC(=O)NC3CCCC3)c3c2cnc2ccc(F)cc23)cc1` stands 4.19%. In the case of `COC(=O)c1ccccc1NC(=O)Cn1nnc2sc(-c3ccccc3)cc2c1=O`, the inhibition worked out at 4.14%. Under `COc1ccccc1CNS(=O)(=O)c1cc2c3c(c1)CCN3C(=O)CC2` stands -16.9% and active: 74.8%. Under `COc1ccc(-c2nc(-c3ccccc3)c(-c3ccc(O)cc3)[nH]2)cc1` stands -16.7%.

On to `CCOc1ccccc1NC(=O)NCCn1c(=O)oc2ccc(C)cc21`, for which the inhibition stood at 6.17%.

As for `COc1ccccc1C(=O)Nc1nc(-c2ccccc2)ns1`, the inhibition was -0.481%. Consider `COc1ccccc1C(=O)NCCn1cc(SCc2ccccc2Cl)c2ccccc21`, for which the inhibition came to 2.27%.

In the case of `Cc1ccc(NC(=O)C(=O)NCC(c2cccnc2)N2CCc3ccccc32)cc1Cl` (centres undefined), the inhibition was determined as 13.9%.

Consider `Cc1c(Cl)cccc1NC(=O)CCn1nc(C)c2c(C)n(-c3ccccc3)nc2c1=O`, for which the inhibition was determined as 6.64%.

For `O=C(Nc1ccc(F)c(Cl)c1)c1cc(S(=O)(=O)N2CCCc3ccccc32)ccc1F`, the inhibition was 9.68%. Under `CCOc1ccccc1NC(=O)CN1C(=O)C2(SCC(=O)N2c2cccc(F)c2)c2ccccc21` (centres undefined) stands 8.28%; under `CCOc1ccc(C(=O)N2CCCCC2CCN2CCOCC2)cc1` (centres undefined), 8.12%; under `COc1ccc(NC(=O)c2sc3nc(C)c(C(=O)Nc4ccc(Cl)cc4)c(-c4ccc(Br)cc4)c3c2N)cc1`, 11.3%. `COc1cccc(-c2cc(C(=O)Nc3ccc(C)cc3)[nH]n2)c1`: the inhibition amounted to 7.24%. Under `COc1ccc(C(=O)N2CCc3cc(OC)c(OC)cc3C2COc2ccc3c(C)cc(=O)oc3c2)c(OC)c1` (centres undefined) stands 12.3%; under `Cc1cc(C)n(-c2nc3ccccc3nc2Nc2cc(C(=O)O)ccc2C)n1`, 7.75%.

Turning to `Cc1ccc(CN2CCN(CC(=O)NCc3ccccc3Cl)C2=O)cc1`, the inhibition was -10%. Under `COc1cc(NS(=O)(=O)c2ccc3c(c2)CCCN3C(C)=O)cc(OC)c1OC` stands -2.44%; under `Cc1cc(C)cc(-n2nnc(-c3nc(-c4ccccc4F)no3)c2C)c1`, 5.86%.

On to `COc1ccc(CNC(=O)c2ccc3c(c2)nc2n3CCCCC2)c(OC)c1`, for which the inhibition is -2.98%. Under `c1csc(CSc2nc3ccccc3s2)c1` stands active: 39.1%; under `CCOC(=O)c1cccc(NS(=O)(=O)c2cn(C)c(C)n2)c1`, 10.6%; under `Cc1ccc(C(=O)COC(=O)C2CC(=O)N(c3nc(-c4ccccc4)cs3)C2)cc1` (centres undefined), active: 34.1%. Under `COc1ccc(/C=C/c2noc(-c3ccccc3O)n2)cc1OC` stands 16.7%. Under `Cc1ccccc1C(=O)NC1CC2CCCC(C1)N2Cc1ccccc1` (centres undefined) stands active: 71.4%; under `COC(=O)c1ccccc1NC(=O)Cn1c(=O)n(-c2ccc(Cl)cc2)c(=O)c2c(C)c(C)sc21`, 10.4%; under `CCOc1ccc(OCC)c(NC(=O)CCc2c(C)nc3c(c2C)c(=O)n(C)c(=O)n3C)c1`, 13%.

As for `O=C(c1ccc2c(c1)N(Cc1ccccc1)C(=O)c1ccccc1S2(=O)=O)N1CCN(c2ccccn2)CC1`, the inhibition was -3.59%. Take `CCSc1ncc(Cl)c(C(=O)Nc2c(C(=O)Nc3ccc(Cl)cc3)oc3ccccc23)n1`: the inhibition is -10.4%. Consider `COc1cc(C2c3c(oc4ccccc4c3=O)C(=O)N2c2nnc(C(C)C)s2)cc(OC)c1OC` (centres undefined), for which the inhibition came to 19.6%. Under `CCOc1ccccc1CNC(=O)c1cc(-c2ccc(OC)cc2)nc2ccc(C(C)C)cc12` stands -18%; under `COc1ccc(NC(=O)COCc2cc(-c3cccs3)on2)cc1`, -15.7%.

With `Cc1ccccc1C1C=C(c2ccc(Cl)cc2)Nc2nnnn21` (centres undefined), the inhibition is 2.67%. Under `O=C(CCN1CCN(c2ccccc2)CC1)NNC(=O)c1cccc2ccccc12` stands active: 85.3%. Under `CN1C(=O)Cc2cc(S(=O)(=O)CCC(=O)N3CCN(c4ccccc4F)CC3)ccc21` stands 1.48%; under `COc1ccc(-c2cc(C(F)(F)F)n3nc(C(=O)Nc4cccc(Cl)c4C)cc3n2)cc1`, 8.9%; under `CCOC(=O)c1ccc(NC(=O)Cn2cnc(S(=O)(=O)N3CCCC3)c2)cc1`, 8.84%.

For the compound `COc1ccc(-n2nc3c(N4CCCC(C(=O)NCCc5ccc(C)cc5)C4)nnc(C)c3c2C)cc1` (centres undefined), the inhibition was -17.7%.

Take `CC(C)CNc1ncnc2c1sc1nc(N3CCOCC3)c3c(c12)CC(C)(C)OC3`: the inhibition is active: 32.9%. Under `COc1ccc(-n2cc(-c3ccccc3)nc2SCC(=O)Nc2ccccc2)cc1Cl` stands 11.7%; under `CCc1ccc(S(=O)(=O)c2nnn3c2nc(N2CCCC2)c2sccc23)cc1`, 11.4%; under `CCc1ccc(NC(=O)N2CC(C)Oc3ccc(C)cc32)cc1` (centres undefined), 7.14%. For `CC(C)(C)OC(=O)N1CCC(c2c(C(=O)NCCN3CCC(Cc4ccccc4)CC3)cnn2-c2ccccc2)CC1`, the inhibition was 5.12%. Under `COc1cccc(C2=NOC(C(=O)Nc3ccc4c(c3)OCO4)C2)c1OC` (centres undefined) stands active: 59.8%; under `COCCCNc1ncnc2c1cnn2-c1ccc(F)cc1`, 10.9%.

As for `COc1cc2ccccc2cc1C(=O)Nc1ccc2oc(-c3cccc(Cl)c3Cl)nc2c1`, the inhibition is 2.31%. With `COc1ccc(C2CC(=O)Nc3c2c(=O)[nH]c2nc4ccccc4n32)cc1OC` (centres undefined), the inhibition worked out at 9.76%. Under `Cc1ccc2oc3c(c(=O)c2c1)C(c1ccc(F)cc1)N(c1nc(C)c(C)s1)C3=O` (centres undefined) stands -11.5%; under `COCCNC(=O)C(=O)NCC(c1cccnc1)N1CCN(c2ccccc2F)CC1` (centres undefined), -2.16%. Consider `COc1ccccc1Nc1nc2ccc(Cl)cc2nc1-n1nc(C)cc1C`, for which the inhibition is -6.59%. Under `CCOC(=O)c1ccc(NC(=O)CC2C(=O)N(c3ccc(F)cc3)C(=O)N2Cc2ccc3c(c2)OCO3)cc1` (centres undefined) stands 11.8%; under `CCOC(=O)c1cccc(NC(=O)C2CCN(S(=O)(=O)c3cn(C)cn3)CC2)c1`, -2.45%. Under `Cc1ccc(C)c(NS(=O)(=O)c2cc3c(cc2Cl)NC(=O)CO3)c1` stands 14.7%; under `COc1ccc(N2CCN(C3=NS(=O)(=O)C(c4cccc(Br)c4)=C3C)CC2)cc1`, 26.6%. Under `CCOC(=O)c1ccc(NC(=O)CCc2c(C)nc3nc[nH]n3c2=O)cc1` stands 4.79%. `Cc1cc(C)c(NC(=O)CCc2c(C)nc3c(c(C)nn3C(C)(C)C)c2C)c(C)c1`: the inhibition is 26.4%. Under `COc1ccc(C2=NN(CC(=O)NCCCN(C)c3ccccc3)C(=O)CC2)cc1` stands -13.9%; under `COC(=O)c1cc2sc(C)cc2n1Cc1ccc(Br)cc1F`, -2.16%; under `CCOc1ccccc1N1CCN(C(=O)c2ccc(-c3ccc(OC(C)=O)cc3)cc2)CC1`, active: 30.7%.

With `Cc1ccccc1Nc1c(-c2ccc(N3CCOCC3)cc2)nc2ncccn12`, the inhibition was determined as 3.06%. Under `COc1ccc(CN2COc3ccc4c(oc(=O)c5ccccc54)c3C2)cc1OC` stands 2.65%.

As to `O=C(Nc1ccccc1-c1nc2ccccc2s1)c1cc(Cl)cc(Cl)c1`, the inhibition was 8.11%. Under `O=C(c1ccccc1Cl)n1nc(-c2cccnc2)nc1NCc1ccc(F)cc1` stands -0.446%; under `COC(=O)c1scc(-c2ccccc2)c1S(=O)(=O)Nc1cccc(C)c1C`, 12%; under `CCCCOc1ccc(C(=O)N(Cc2ccc(C(C)C)cc2)C2CCS(=O)(=O)C2)cc1` (centres undefined), -6.58%. Under `COCCCNC(=O)c1sc2nc(C)c(C(=O)Nc3ccc(C)cc3C)c(-c3ccc(Cl)cc3)c2c1N` stands 9.01%; under `Cc1c(Cl)cccc1NC(=O)c1ccc(C(=O)Nc2cccc(Cl)c2C)cc1`, -1.47%; under `CC(=O)Nc1ccc(S(=O)(=O)N2CCC(Oc3ccc(-n4cnnn4)cc3)CC2)cc1`, -12.9%. Under `CCOc1ccccc1N1CCN(Cc2c(C)n(C)n(-c3ccccc3)c2=O)CC1` stands active: 84.6%; under `CC(=O)N1CCc2c(sc3c2c(=O)n(-c2ccccc2C)c(=O)n3Cc2cccc(F)c2)C1`, -14.1%; under `CC1CCN(C(=O)c2cnn(-c3cccc(Cl)c3)c2C2CCN(C(=O)OC(C)(C)C)CC2)CC1`, -5.7%. With `COc1ccc(OCC(=O)NCC(c2ccc(Cl)cc2)N2CCCCC2)cc1` (centres undefined), the inhibition is 8.79%. Under `COc1ccc(NC(=O)c2c(-c3ccccc3)c(-c3ccccc3)nn(C)c2=O)c(OC)c1` stands -7.76%; under `CC(=O)N1c2ccccc2C(=O)C1N1CCN(c2ccccc2)CC1` (centres undefined), -1.11%.

Consider `Cc1ccc2c(=O)cc(CSc3nnc(-c4ccccc4)n3C)[nH]c2c1C`, for which the inhibition amounted to 2.67%. Under `Cc1cc(-c2nc3ncccc3o2)ccc1NC(=O)c1ccc(Br)cc1` stands -10.7%.

With `Cc1cc(C)c(NC(=O)c2cc3c(=O)n4ccccc4nc3n2C)c(C)c1`, the inhibition amounted to 25.2%. Under `Cc1ccc(S(=O)(=O)N(C)C)cc1NC(=S)N1CCCCC1CO` (centres undefined) stands active: 39%; under `CCOC(=O)Cn1c(=O)n(C2CCCCC2)c2nc(-c3ccc(Cl)cc3)nc(C(N)=O)c21`, 11.6%. In the case of `COc1cccc(-n2cc(C(=O)NCc3cccc(Cl)c3)c3ccccc3c2=O)c1`, the inhibition is -20.7%. Regarding `COc1ccc(S(=O)(=O)Nc2cc3c(cc2NCc2ccccc2)n(C)c(=O)n3C)cc1OC`, the inhibition amounted to 9.21%.

`CCOc1ccc(C(=O)Nc2ccc3nc(SCc4ccccc4)sc3c2)cc1`: the inhibition is 3.21%.

Turning to `Cc1nc2c(-c3ccc(F)cc3)c(C)nn2c(C)c1CCC(=O)NCc1ccc(Cl)cc1`, the inhibition is -7.38%. For the compound `N#Cc1cc(S(=O)(=O)c2ccccc2)c(N)[nH]c1=O`, the inhibition was active: 85.6%. Under `Cc1ccc(NC(=O)CSc2nc3c([nH]c4ccccc43)c(=O)n2-c2ccccc2)c(C)c1` stands -9.78%; under `Cc1cccc(NS(=O)(=O)c2ccc3c(c2)CCN3C(=O)CCC(=O)O)c1C`, 26.9%.

As to `CCN(c1ccccc1)S(=O)(=O)c1ccc(NC(=O)c2cc(=O)c3cc(C)c(C)cc3o2)cc1`, the inhibition worked out at 5.59%. Under `COc1cccc(CNC(=O)CCCN2C(=O)CSc3c2c(C)nn3-c2ccccc2)c1` stands 10.2%; under `O=c1c2ccccc2n(Cc2cccc(F)c2)c(=O)n1Cc1ccccc1Cl`, -10.7%.

`CCn1cc(C(=O)N2CCN(c3cc(C)ccc3C)CC2)c(=O)c2cc(S(=O)(=O)N(C)C3CCCCC3)ccc21`: the inhibition came out at 3.77%. Under `Cc1cccc(Nc2c3c(nc4nncn24)CCC3)c1` stands 7.48%; under `COc1ccc(-c2ccc3c(N)c(C(=O)Nc4cc(F)ccc4C)sc3n2)cc1`, 8.74%; under `COCCN(C(=O)CCC(=O)Nc1cc(C)on1)C(C(=O)NC(C)(C)C)c1ccccc1Cl` (centres undefined), active: 45.3%.

Broadly, the inhibition is the drop in the measured response relative to a control, in per cent.

Values taken from PubChem BioAssay AID485344 (National Center for Advancing Translational Sciences (NCATS), 2010).
